Laboratory results as given in the supplement of paper PMC9446081.
Among all 39,000 compounds or so, about 220 (0.56%) showed activity. The list shows a part of the results.

Tested on: Escherichia coli K-12 BW25113
Assay: relative growth (OD600 normalised to plate interquartile mean) (fraction); higher = less growth inhibition, active = 0.2 or less
Settings: 50 µM; LB; incubation time: overnight (16-24 h)
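Also: static incubation at 37 °C against the wild-type strain, values averaged over two biological replicates.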

Row | Structure (SMILES) | relative growth
1 | C[C@H](CO)N1C[C@H](C)[C@H](CN(C)C(=O)Nc2cccc3ccccc23)OCCCC[C@H](C)Oc2ccc(NS(=O)(=O)c3cn(C)cn3)cc2C1=O | inactive: 0.911
2 | CCOc1cc(OCC)cc(C(=O)N[C@@H](Cc2ccc(-n3cc(-c4ccc(C(=O)NO)s4)nn3)cc2)C(=O)OC)c1 | inactive: 0.962
3 | O=C(C[C@@H]1CC[C@H](NC(=O)CN2CCOCC2)[C@H](CO)O1)NC1CCC1 | inactive: 0.968
4 | C[C@@H]1CN([C@@H](C)CO)C(=O)Cc2cc(NS(C)(=O)=O)ccc2O[C@@H]1CN(C)S(C)(=O)=O | inactive: 0.999
5 | C[C@H](CO)N1C[C@H](C)[C@@H](CN(C)C(=O)Nc2ccc(C(F)(F)F)cc2)Oc2ncc(/C=C/c3ccccc3)cc2C1=O | inactive: 1.01
6 | C[C@@H]1CCCCO[C@@H](CN(C)C(=O)Nc2ccc(F)cc2)[C@@H](C)CN([C@H](C)CO)C(=O)c2cc(NC(=O)CCCCCC(=O)Nc3ccccc3N)ccc2O1 | inactive: 1.05
7 | CN1C2CCC1CC(OC(=O)c1c[nH]c3ccccc13)C2.Cl (stereo not given) | inactive: 1.13
8 | CC(C)NC(=O)Nc1cccc2c1O[C@@H](CN(C)C(=O)NC1CCCCC1)[C@H](C)CN([C@H](C)CO)C2=O | inactive: 1.02
9 | O=C(OCc1ccccc1)c1ccccc1 | inactive: 0.931
10 | Cc1ccc(S(=O)(=O)Nc2ccc3c(c2)CC(=O)N([C@@H](C)CO)C[C@H](C)[C@@H](CN(C)C(=O)Nc2ccc(C(F)(F)F)cc2)O3)cc1 | inactive: 0.973
11 | C[C@H](CO)N1C[C@H](C)[C@H](CN(C)S(=O)(=O)c2cccc(F)c2)Oc2ncc(C#Cc3ccc(F)cc3)cc2C1=O | inactive: 1
12 | COc1ccc(S(=O)(=O)N(C)C[C@H]2Oc3ccc(NC(=O)NC(C)C)cc3CC(=O)N([C@@H](C)CO)C[C@@H]2C)cc1 | inactive: 1
13 | COc1ccc(CN(C)C[C@H]2OCCCC[C@@H](C)Oc3ccc(NC(=O)CCC(F)(F)F)cc3C(=O)N([C@@H](C)CO)C[C@H]2C)cc1 | inactive: 1.01
14 | C[C@@H]1CN([C@@H](C)CO)C(=O)c2cc(NC(=O)C3CCCCC3)ccc2O[C@H]1CN(C)Cc1ccc(Cl)c(Cl)c1 | inactive: 0.953
15 | COc1ccc(CN(C)C[C@H]2Oc3c(NC(=O)c4ccc(-c5nccs5)cc4)cccc3C(=O)N([C@@H](C)CO)C[C@@H]2C)cc1 | inactive: 1.03
16 | C[C@H](CO)N1C[C@H](C)[C@H](CN(C)C(=O)Nc2cccc3ccccc23)Oc2ccc(NS(=O)(=O)c3cccs3)cc2C1=O | inactive: 1.01
17 | Nc1cnn(-c2ccccc2)c(=O)c1N | inactive: 1.01
18 | C[C@@H]1CN([C@H](C)CO)C(=O)CCCn2cc(nn2)CO[C@@H]1CN(C)Cc1cccc2c1OCCCO2 | inactive: 0.961
19 | CC(C)NC(=O)N(C)C[C@H]1OCCCC[C@H](C)Oc2ccc(NC(=O)Nc3cccc4ccccc34)cc2C(=O)N([C@H](C)CO)C[C@H]1C | inactive: 0.976
20 | CC(C)NC(=O)N(C)C[C@H]1Oc2ccc(NS(=O)(=O)c3ccccc3)cc2CC(=O)N([C@H](C)CO)C[C@@H]1C | inactive: 1.02

Row | Structure (SMILES) | relative growth
21 | CC(C)CNC(=O)C(=O)NC(C)C | inactive: 0.942
22 | C[C@@H]1CN([C@@H](C)CO)C(=O)c2cc(-c3ccc(C(=O)N(C)C)cc3)cnc2O[C@H]1CN(C)C(=O)CN(C)C | inactive: 1.02
23 | N#CNC1=NCN(CCN2CCOCC2)CN1 | inactive: 1.05
24 | C[C@@H]1CN([C@@H](C)CO)C(=O)c2cc(NC(=O)Nc3ccccc3)ccc2O[C@@H]1CN(C)Cc1ccc(Cl)c(Cl)c1 | inactive: 1.01
25 | COCC#Cc1ccc2c(c1)O[C@@H](CN(C)S(=O)(=O)c1cccc(F)c1)[C@H](C)CN([C@H](C)CO)S2(=O)=O | inactive: 1.03
26 | COc1ccc(S(=O)(=O)Nc2ccc3c(c2)CC(=O)N([C@H](C)CO)C[C@@H](C)[C@@H](CN(C)S(=O)(=O)c2ccc(OC)cc2)O3)cc1 | inactive: 0.975
27 | C[C@H](NC(=O)[C@@H](Cc1ccc2ccccc2c1)NC(=O)[C@@H](C)N)C(=O)N[C@@H](Cc1c[nH]c2ccccc12)C(=O)N[C@H](Cc1ccccc1)C(=O)N[C@@H](CCCCN)C(N)=O | inactive: 0.98
28 | [O-][NH2+]N(O)c1ccccc1 | inactive: 0.988
29 | N[C@@H](CC(=O)NO)C(=O)O | inactive: 1.02
30 | COc1ccc([Si](C)(C)[C@@H]2[C@@H](CC(=O)N(CCO)Cc3ccccc3)O[C@]3(C(=O)N(Cc4cccc(N5CCOC5=O)c4)c4ccccc43)[C@H]2C)cc1 | inactive: 1.02
31 | CC(C)NC(=O)N(C)C[C@@H]1Oc2ccc(NS(=O)(=O)c3ccc(F)cc3)cc2CC(=O)N([C@@H](C)CO)C[C@H]1C | inactive: 1.02
32 | C[C@@H]1CCCCO[C@H](CN(C)C(=O)Nc2cccc3ccccc23)[C@@H](C)CN([C@H](C)CO)C(=O)c2cc(NC(=O)Nc3ccc(F)cc3)ccc2O1 | inactive: 1
33 | CN1CCN(c2ccc(OC(F)(F)F)c(Nc3ncc4c(n3)-c3c(c(C(N)=O)nn3CCO)CC4)c2)CC1 | inactive: 0.989
34 | CCCN(C)C[C@H]1OCCCC[C@@H](C)Oc2ccc(NC(=O)C3CCCCC3)cc2C(=O)N([C@H](C)CO)C[C@H]1C | inactive: 0.999
35 | CC(=O)n1cc([C@H]2C=C(C(=O)N3CCCCCCC3)O[C@@H](OCc3ccc(CO)cc3)C2)c2ccccc21 | inactive: 1.04
36 | C[C@@H]1CN([C@@H](C)CO)C(=O)CCCn2cc(nn2)CO[C@@H]1CN(C)C(=O)Nc1ccnc(N2CCOCC2)c1 | inactive: 0.981
37 | COC(=O)CNS(=O)(=O)c1ccsc1C(=O)OC | inactive: 1.02
38 | Brc1c(NC2=NCCN2)ccc2nccnc12 | inactive: 1.03
39 | C[C@@H]1CN([C@@H](C)CO)C(=O)c2cc(C#CCN(C)C)cnc2O[C@H]1CN(C)C(=O)c1ccc2c(c1)OCO2 | inactive: 1.03
40 | Cc1noc(C)c1S(=O)(=O)N(C)C[C@@H]1OCCCC[C@@H](C)Oc2ccc(NS(=O)(=O)c3cn(C)cn3)cc2C(=O)N([C@H](C)CO)C[C@@H]1C | inactive: 1
